In the supplement of paper PMC12217912:
Some of the results follow. Sequences were assembled here from the parent chain. Inactive controls read about 0.05.

B1: TEV protease; numbered along this chain (parent)
chain: MGESLFKGPRDYNPISSSICHLTNESDGHTTSLYGIGFGPFIITNKHLFRRNNGTLVVQSLHGVFKVKDTTTLQQHLVDGRDMIIIRMPKDFPPFPQKLKFREPQREERICLVTTNFQTKSMSSMVSDTSCTFPSGDGIFWKHWIQTKDGQCGSPLVSTRDGFIVGIHSASNFTNTNNYFTSVPKNFMELLTNQEAQQWVSGWRLNADSVLWGGHKVFMVKPEEPFQPVKEATQL

Variants of: B1
Test: raw area under fraction-flipped curve 0-4 h after induction (AUC4h, not background-subtracted), DNA-recorder readout of cleavage of the substrate (dimensionless); higher = more cleavage of the substrate by the protease variant
Conditions: temperature: 34 °C; time window: 0-4 h after rhamnose induction
Protocol: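 In vivo DNA recorder in E. coli TOP10(DE3) ΔrhaA at 34 °C. Each TEVp single-site mutant (parent TEVp 0) is paired with a single-site variant of the 7-mer TEVs (canonical ENLYFQ|S). The substrate sits between flexible linkers in a Bxb1-sfGFP-TEVs-SsrA fusion, so cleavage stabilises Bxb1 and speeds flipping of a recombination array, read by NGS. The value is the raw area under the fraction-flipped curve over 0-4 h after rhamnose induction (AUC4h), with ≥20 reads per time point. It is not background-subtracted; inactive controls average about 0.047.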
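Also: Bxb1 expression induced with 0.2% (w/v) L-rhamnose at OD600 near 0.5, cultures sampled hourly, flipped fraction per protease–substrate barcode pair counted by paired-end Illumina sequencing.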

Variant	area with substrate ENAYFQS	area with substrate ENDYFQS	area with substrate ENEYFQS	area with substrate ENFYFQS	area with substrate ENGYFQS	area with substrate ENHYFQS	area with substrate ENIYFQS	area with substrate ENKYFQS	area with substrate ENNYFQS	area with substrate ENPYFQS	area with substrate ENQYFQS	area with substrate ENRYFQS	area with substrate ENSYFQS	area with substrate ENTYFQS	area with substrate ENVYFQS	area with substrate ENCYFQS	area with substrate ENMYFQS	area with substrate ENYYFQS	area with substrate ENWYFQS
S17P	0.0596	0.0639	0.0555	0.0556	0.0458	0.0539	0.0929	0.0527	0.0395	0.0712	0.0595	0.0483	0.0599	0.0598	0.0759	–	–	–	–
S18Q	0.0418	0.0601	0.0603	0.0642	0.0577	–	–	–	0.0751	0.0558	–	0.044	0.0571	0.0616	0.106	0.0633	0.0932	–	–
I19W	0.064	–	0.0503	0.0511	0.0478	0.0438	–	0.0514	0.0554	–	0.0487	0.0487	0.0571	0.0351	0.0519	–	–	0.0473	–
C20L	0.03	0.0589	0.064	0.0525	0.0361	0.0512	–	0.0535	–	0.051	0.0613	–	0.0659	0.0694	0.0832	0.0627	–	–	–
C20W	0.0428	0.0338	0.0483	0.0498	0.0386	0.0485	–	–	0.051	0.0438	0.038	–	0.0502	0.0453	0.0409	–	0.0372	0.0425	0.0427
H21V	0.0493	0.0583	0.0759	0.0558	0.0463	0.0608	0.0994	–	0.072	0.0579	0.0557	0.0616	0.0715	0.0615	0.0625	0.0607	0.0681	0.0567	–
L22C	0.0626	0.0662	0.062	0.0543	0.0634	–	–	0.0583	–	0.0621	0.0585	0.069	0.0652	0.043	0.065	0.0645	0.0606	–	0.0441
L22D	0.0473	0.0432	0.0537	0.0446	0.0493	0.0437	0.0622	0.0462	0.0408	0.0497	0.052	0.0502	0.0479	0.0524	0.0498	0.0562	0.0528	0.0524	0.0514
L22H	0.0467	0.0436	0.051	0.0465	0.0399	0.0469	0.0469	0.0476	0.0292	0.0506	0.0473	0.0394	0.0445	0.0484	0.0444	0.0506	0.0534	–	–
L22S	0.0365	0.061	0.0398	–	0.0471	0.0579	–	0.0424	0.0474	–	0.0452	0.0599	0.0572	0.0593	0.0428	–	–	0.043	0.0294
L22Y	0.0505	0.05	0.0439	–	0.0571	–	0.0436	0.0473	–	0.0538	0.061	0.0384	0.0537	0.0473	–	0.0535	–	–	0.0334
T23A	0.057	0.0487	0.0483	–	–	0.0672	–	0.0536	–	0.0333	0.0673	–	0.0542	0.062	0.0804	0.066	0.0674	0.0567	–
